Measurements taken from ChEMBL document CHEMBL4888484, “Replenishing the malaria drug discovery pipeline: Screening and hit evaluation of the MMV Hit Generation Library 1 (HGL1) against asexual blood stage Plasmodium falciparum ,using a nano luciferase reporter read-out” (2022).
In all, about 150,000 compounds went through this assay and about 540 (0.36%) showed an effect of 50% or more. This is one part of the list.

Test system: Plasmodium falciparum
Experiment: Primary screen in NF54 nanoGlo assay, in single point, at 2uM, 72h; a lower Z score goes with more inhibition
Format: functional, Erythrocyte
Details: timepoint 72 hour

| SMILES | % Inhibition | Z score |
| --- | --- | --- |
| CCc1ccc(C(=O)N2CCC3(CCC(=O)N3)CC2)s1 | -1% | 0.23 |
| OC[C@H]1CCCN(CCNc2ncc(Cl)cc2Cl)C1 | -16% | 2.05 |
| COc1cc(Cn2cnc(-c3ccccc3)cc2=O)cc(OC)c1 | 21% | -2.81 |
| Cc1ccccc1-c1noc(C[C@H]2CCCN(S(=O)(=O)N3CCCC3)C2)n1 | 12% | -1.61 |
| Cc1ccc(C)n1-c1ccc(Cl)c(C(=O)Nc2cccnc2N(C)C)c1 | 27% | -3.94 |
| Cc1cc(C(=O)NC2CCN(c3cc(C)[nH]n3)CC2)[nH]n1 | -15% | 1.92 |
| O=C(N[C@]1(C(=O)O)CCCc2ccccc21)c1csc(-c2cccs2)n1 | -12% | 2.17 |
| Cc1ccc(OC(=O)C2CCC(N3C(=O)C4CCCCC4C3=O)CC2)cc1 (configuration not stated) | 3% | -0.34 |
| O=c1[nH]c2ccc(-c3csc(-c4ccco4)n3)cc2[nH]1 | -14% | 2.25 |
| COc1ccc(C[C@@](C#N)(CC(=O)Nc2ccccc2)c2nc3ccccc3[nH]2)cc1 | 1% | -0.18 |
| O=C1[C@@H]2CCCN2C(=O)N1Cc1noc(-c2ccoc2)n1 | 0% | 0.03 |
| O=C(CC1CCCC1)N1CCC[C@@H]1CCc1noc(C2CC2)n1 | -12% | 1.94 |
| O=C(c1ncccc1O)N1CCCC1CC(O)c1ccc(F)cc1 (configuration not stated) | -5% | 0.6 |
| CN(Cc1ncnn1C)C(=O)NC(C1CCCC1)C1CCCC1 | 2% | -0.32 |
| CCn1cc(S(=O)(=O)NC[C@H]2Cn3cccc3CN2Cc2cccnc2)cn1 | 6% | -1.13 |
| O=C1CCCC[C@@](Cc2cccnc2)(C(=O)NCc2ccccn2)N1 | 5% | -0.54 |
| C=CCn1ccc2ccn(CCN3CCCCC3)c(=O)c21 | -19% | 1.63 |
| Oc1cc2c(cc1-n1cnnc1)CCCC2 | -7% | 0.66 |
| CCS(=O)(=O)N1CCC(C(=O)N2CCCCCC2)CC1 | -3% | 0.47 |
| C=CCn1ncc(CN(Cc2cccnc2)C2CCCCC2)c1C | -8% | 1.27 |
| CCc1nc(OCC(=O)NCCCOC)c2c(-c3ccc(F)cc3)noc2n1 | 4% | -0.56 |
| O=C(Nc1ccc2ccccc2c1)c1cccc(C(=O)Nc2ccc3ccccc3c2)c1 | 2% | -0.37 |

| SMILES | % Inhibition | Z score |
| --- | --- | --- |
| COc1ccc(Br)c(C(=O)N2CCC(n3cnc4ncccc4c3=O)CC2)c1 | -11% | 1.82 |
| COc1ccc(-c2c[n+](-c3ccc(Cl)cc3)c3n2CCCCC3)cc1 | 64% | -6.22 |
| CCOC(=O)CN(C(=O)c1cc2nccnc2cc1F)C(C)(C)C | 2% | -0.37 |
| Cc1cc(C)cc(NC(=O)[C@H]2CCCN(S(=O)(=O)c3cc4c(cc3C)NC(=O)CO4)C2)c1 | -13% | 1.48 |
| O=S(=O)(CC1CCC1)N1CCNC[C@H]1c1ccccc1 | 5% | -1.05 |
| COc1cc([C@@H]2CCCCCN2)cc(Cl)c1OC | -39% | 4.59 |
| CC(C)c1cc(C(=O)O[C@H](c2cnn(C)c2)C(F)(F)F)on1 | -11% | 1.45 |
| C[C@H]1CCCN(CC(=O)Nc2cc(S(=O)(=O)N3CCCCC3)ccc2Cl)C1 | -15% | 1.52 |
| Cc1nc([C@H](O)C2CCCCC2)n(C(C)(C)C)n1 | -13% | 2.21 |
| CC(C)n1cncc1CN1CCO[C@H](c2ccc(Cl)cc2)C1 | 3% | -0.38 |
| O=C(Cc1noc(CN2CCCCCCC2=O)n1)NC1CCCCC1 | 9% | -1.01 |
| CN(Cc1ccsc1)C(=O)c1cccs1 | -2% | 0.22 |
| Cc1ccc(CN2CCN(C(=O)c3cc(C(C)C)nn3C)[C@@H](C)C2=O)cc1 | -8% | 1.54 |
| C[C@H](C#N)CN(C)S(=O)(=O)NCc1nc(N(C)C)no1 | -5% | 0.73 |
| Cc1cc(OCc2nc(CC(=O)Nc3nnc(C4CC4)s3)cs2)ccc1Cl | -15% | 2.79 |
| CC1CC(CC(=O)N(C)C(C)CC#N)CC(C)(C)C1 (configuration not stated) | 0% | 0.04 |
| O=C1NC(=O)[C@@]2(CCCN(c3ncnc4[nH]ccc34)C2)N1 | 1% | -0.13 |
| CCNc1nc(C)c(-c2nc(CC(N)=O)n[nH]2)s1 | 5% | -0.66 |
| Cc1cccc(-c2cn(CC3CC(F)(F)C3)nn2)n1 | -10% | 1.48 |
| COC[C@H]1CCCCN1C(=O)c1coc(CN2CCN(Cc3ccccc3)CC2)n1 | 5% | -0.91 |
| CCCN1C=NS(=O)(=O)c2cc(C(=O)Nc3ccccc3OC)ccc21 | -8% | 1.23 |
| C#CCNC(=O)c1ccccc1Br | -1% | 0.2 |

| SMILES | % Inhibition | Z score |
| --- | --- | --- |
| CCOc1ccccc1CNC(=O)c1ncoc1-c1cccs1 | 2% | -0.22 |
| O=C1c2ccccc2C(c2ccc(O)cc2)(c2ccc(O)cc2)N1c1ccccc1 | -11% | 1.48 |
| COc1ccc([C@H](C)NC(=O)c2cc(NC(C)=O)cc3nc(C)ccc23)cc1 | -6% | 0.78 |
| Cc1cnccc1CN(C)C(=O)c1cccn1C1CC1 | 0% | 0.08 |
| CCCCOCCCNC(=O)c1cc2c(c(OC)c1)O[C@@H](C)C2 | -10% | 1.56 |
| Cc1cc(N)ncc1-c1ccc(C(=O)N2CCCCCC2)cc1 | -21% | 1.83 |
| CCCCCN1CCN(Cc2cnc(NCC)nc2)[C@H]2CS(=O)(=O)C[C@H]21 | -1% | 0.09 |
| Cc1nc(C)c(C(=O)Nc2cccc(Oc3cccnn3)c2)o1 | -7% | 0.69 |
| Cc1ccc(C)c(C(=O)N(Cc2ccncc2)C[C@@H]2CCC(=O)N2)c1 | -17% | 1.6 |
| Cc1ccccc1OCc1c(C(=O)N2CC[C@H](c3nc(C4CCOCC4)no3)C2)noc1C | -3% | 0.45 |
| O=C(Nc1nnc(-c2ccc(Br)cc2)o1)C(c1ccccc1)c1ccccc1 | 1% | -0.18 |
| Cc1ccccc1CN1CCCN(C(=O)c2cc3ccccc3c(=O)[nH]2)CC1 | -5% | 0.7 |
| COc1ccccc1CNc1ccc2cc[nH]c2n1 | -12% | 1.37 |
| CCN=C(NCc1nc(C)c(C)s1)N1CC2CCCCC2C1 (configuration not stated) | 1% | -0.12 |
| CCc1cc2c(Oc3ccc(C)nc3)ncnc2s1 | 28% | -3.71 |
| Cc1cc2c(cc1NC(=O)c1ccccc1F)N(C)S(=O)(=O)N2C | -2% | 0.26 |
| CS(=O)(=O)N(CCN1CCOCC1)[C@H]1CCCN(Cc2cccc(Cl)c2)C1 | -6% | 0.78 |
| COc1ccc(C(=O)N[C@H]2C[C@H]3CN(C(C)=O)[C@@H](C)C(=O)N3C2)c(C)c1 | -19% | 1.68 |
| COc1cccc(CNc2nc(NCc3cccc(OC)c3)n(C(=O)COc3ccccc3)n2)c1 | 12% | -1.46 |
| O=C(NC1CCC(C(F)F)CC1)c1cc2n(n1)CCC2 (configuration not stated) | -1% | 0.09 |
| CC(NC(=O)N1CCCC(C)(O)CC1)c1cccc(C#N)c1 (configuration not stated) | -9% | 1.02 |
| CCCc1ncncc1C(=O)N1C[C@@H]2[C@H]3CC[C@H](CC3)[C@@H]2C1 | -11% | 1.48 |

| SMILES | % Inhibition | Z score |
| --- | --- | --- |
| Cc1ccc2c(c1)CN(C(=O)Cc1cncnc1)C(C)(C)C2 | -9% | 1.19 |
| COc1cc(NC(=O)N2CCC(Oc3ccc(Cl)cn3)CC2)cc(OC)c1 | -17% | 3.22 |
| CC(C)CN(CC(C)(C)C)C(=O)NC[C@H]1CN(C)CCN1C | 3% | -0.47 |
| Cc1cccc(C(=O)N2[C@H](C(=O)NCCN(C)C)COC23CCN(C(=O)c2ccccc2C)CC3)c1 | -2% | 0.4 |
| CC(C)CCS(=O)(=O)Cc1ncc(Cl)cc1Cl | -16% | 1.4 |
| Cc1n[nH]c([C@@H]2CN(c3ccc4nnc(C(C)(C)C)n4n3)CCO2)n1 | 5% | -0.57 |
| O=C(NCC(F)F)C1CC12CCc1cc(Br)ccc12 (configuration not stated) | 4% | -0.56 |
| O=C(C[C@H]1CCCN(c2cn[nH]c(=O)c2)C1)N1CCN(c2ccccc2)CC1 | -8% | 1.03 |
| Cc1cnc(NC(=O)CCc2cnn(C)c2)s1 | 4% | -0.69 |
| CC(C)C(=O)NCc1nccc(N2CCCCC2)n1 | -6% | 0.93 |
| CC1(C)CCc2ncn(Cc3cccc(C(=O)O)c3)c(=O)c2C1 | -9% | 0.91 |
| CC(C)Nc1ncc(C(=O)N2CCC3(CCO3)CC2)cn1 | -7% | 1.33 |
| Cc1ncsc1-c1ccc(CN)cc1 | -10% | 1.44 |
| c1nc(-c2nc(C3CCCC3)no2)c(C2CC2)o1 | -6% | 0.9 |
| CCOC(=O)c1cnn(-c2nccs2)c1N | -6% | 0.98 |
| CN(C)C[C@H]1COC2(CCCC2)CN1S(=O)(=O)CCc1ccccc1F | 5% | -0.96 |
| CC(C)(O)CNC[C@](C)(O)c1ccc(Br)cc1F | 7% | -1.26 |
| Cc1ccc(NC(=O)N2CC[S@@+]([O-])C(C)(C)C2)cc1OC(F)F | 28% | -3.8 |
| CCc1cnc(C)nc1N[C@H](C(N)=O)[C@@H](C)CC | 3% | -0.44 |
| COc1cc(=O)n2c(c1-c1nc(-c3ccccc3Cl)no1)CCC2 | 8% | -0.91 |
